These results are taken from the supplement of paper PMC10600219.

Where a name gives a salt, the structure may show the parent alone. The full ranking holds about 2,800 compounds; the median of “cell viability relative to vehicle” is about 0.98, and the lowest 2% start at about 0.45. The list shows a part of the results.

The subject of this assay is NCI-H2228 alectinib-DTP. The assay is described as follows: cell viability relative to vehicle (fraction of vehicle); NCI-H2228 is an ALK-positive lung cancer line and DTP means drug-tolerant persister; higher = less growth inhibition. The settings on record: 100 nM; treatment time 6 days. The method, boiled down: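 Each value is viability relative to vehicle-treated cells, measured as ATP with the CellTiter-Glo 3D Cell Viability Assay. Parental NCI-H2228 cells and drug-tolerant persisters (1000 nM targeted drug, 13 days) in 384-well plates received the 3114-agent TargetMol anti-cancer compound library at 100 nM, or DMSO, and were read 6 days later.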
Compound `C[C@H](NC(=O)CCC(F)(F)F)C(=O)N[C@@H]1C(=O)N(CCO)c2ncccc2-c2ccccc21` [Crenigacestat] gave a cell viability of 0.963.

Regarding `Fc1ccc(-c2nc3n(c2-c2ccncc2)CCS3)cc1`, the cell viability turned out to be 0.953.

`O=c1c(-c2ccc(O)cc2)coc2cc(O[C@@H]3O[C@H](CO)[C@@H](O)[C@H](O)[C@H]3O)cc(O)c12` [Genistin]: the cell viability came out at 1.07.

In turn, `Cn1ncc(Cl)c1-c1cc(C(=O)N[C@H](CN)Cc2ccc(F)c(F)c2)oc1Cl` [Uprosertib] gave a cell viability of 0.752.

Regarding `CCCCNNC(=O)c1ccc(Br)cc1`, the cell viability came to 0.962.

As for `CN(C)CCc1c[nH]c2ccc(Cn3cncn3)cc12` [Rizatriptan benzoate], the cell viability was 0.824.

The compound `COc1ccc(C[C@@H]2c3cc(Oc4cc(C[C@@H]5c6cc(O)c(OC)cc6CCN5C)ccc4O)c(OC)cc3CCN2C)cc1` [Isoliensinine] showed a cell viability of 1.

Take `OCCN1CCN(CCCN2c3ccccc3Sc3ccc(Cl)cc32)CC1` [Perphenazine]: the cell viability was determined as 1.05.

With `OC[C@H]1O[C@@H](Oc2ccc(O)cc2)[C@H](O)[C@@H](O)[C@@H]1O` [Arbutin], the cell viability worked out at 1.04.

On to `O=C(c1ccc(C(=O)N2CCC(N3CCCC3)CC2)c(Nc2ccccc2)c1)N1CCC(N2CCCC2)CC1`, for which the cell viability came to 1.

In the case of `N#CCC1(n2cc(-c3ncnc4[nH]ccc34)cn2)CN(C2CCN(C(=O)c3ccnc(C(F)(F)F)c3F)CC2)C1` [Itacitinib], the cell viability came out at 1.07.

`COc1cc2c3cc1Oc1c(OC)c(OC)cc4c1[C@@H](Cc1ccc(O)c(c1)Oc1ccc(cc1)C[C@@H]3N(C)CC2)N(C)CC4` [Berbamine] yielded a cell viability of 1.09.

The compound `CCOC(=O)Nc1cc(-c2ccc(C)c(NS(C)(=O)=O)c2)nn2c(C)nnc12` [Bromosporine] gave a cell viability of 0.922.

Turning to `Cc1cc2c(F)c(Oc3ncnn4cc(OC[C@@H](C)OC(=O)[C@H](C)N)c(C)c34)ccc2[nH]1` [Brivanib Alaninate], the cell viability amounted to 0.933.

In turn, `O=c1[nH]c(=O)n(C2CCCO2)cc1F` (stereo unspecified) [Tegafur] had a cell viability of 0.871.

`C[C@@H]1CCN(C(=O)CC#N)C[C@@H]1N(C)c1ncnc2[nH]ccc12` [Tofacitinib]: the cell viability stood at 0.854.

`Cc1c(N(C)CS(=O)(=O)O)c(=O)n(-c2ccccc2)n1C` [Analgin] returned a cell viability of 1.03.

`CCCCNNC(=O)c1ccc(-c2cccc(F)c2F)cc1` returned a cell viability of 1.05.

Consider `COC(=O)C1=CC[C@@]23CC[C@@H]([C@@](C)(/C=C/C=C(\C)C(=O)O)OC2=O)[C@@]3(OC(C)=O)CC1` [Pseudolaric Acid B], for which the cell viability worked out at 0.988.

`CN1C(=O)C(C)(C)Oc2c(-c3cn(C)c(=O)c4[nH]ccc34)cc(S(C)(=O)=O)cc21` gave a cell viability of 0.84.

Consider `CCc1cn([C@H]2C[C@H](O)[C@@H](CO)O2)c(=O)[nH]c1=O` [Edoxudine], for which the cell viability is 1.01.

`CO[C@]1(CC[C@@H](C)CO[C@@H]2O[C@H](CO)[C@@H](O)[C@H](O)[C@H]2O)O[C@H]2C[C@H]3[C@@H]4CC=C5C[C@@H](O[C@@H]6O[C@H](CO)[C@@H](O[C@@H]7O[C@@H](C)[C@H](O)[C@@H](O)[C@H]7O)[C@H](O)[C@H]6O[C@@H]6O[C@@H](C)[C@H](O)[C@@H](O)[C@H]6O)CC[C@]5(C)[C@H]4CC[C@]3(C)[C@H]2[C@@H]1C` [Methyl protodioscin] gave a cell viability of 1.02.

`COCC[n+]1c2c(n(Cc3cnccn3)c1C)C(=O)c1ccccc1C2=O` displayed a cell viability of 0.0756.

`O=C(NCCO)c1cccc(-c2cc(Nc3ccc(OC(F)(F)F)cc3)ncn2)c1` returned a cell viability of 0.954.

`CNCC(O)c1ccc(OC(=O)C(C)(C)C)c(OC(=O)C(C)(C)C)c1` (stereo unspecified) [Dipivefrin hydrochloride] registered a cell viability of 0.969.

The compound `CCCOc1ccn2c(C(C)=O)cc(-c3ccccc3S(C)(=O)=O)c2c1` yielded a cell viability of 0.959.

On to `O=C1c2ccccc2C(=O)c2c1ccc(O)c2O` [Alizarin], for which the cell viability worked out at 1.24.

`Cc1nc(=O)c2cc(CN(C)c3ccc(C(=O)N[C@@H](CCC(=O)O)C(=O)O)s3)ccc2[nH]1` [Raltitrexed]: the cell viability stood at 0.688.

Compound `CN(C)C[C@@H]1CCn2cc(c3ccccc32)C2=C(C(=O)NC2=O)c2cn(c3ccccc23)CCO1` [Ruboxistaurin hydrochloride] returned a cell viability of 1.02.

For `CS(=O)(=O)N1CCc2c(-c3cnc(N)nc3)nc(N3CCOCC3)nc21`, the cell viability came to 0.755.

In turn, `O=c1oc2ccccc2c(O)c1Cc1c(O)c2ccccc2oc1=O` [Dicumarol] showed a cell viability of 0.905.

`C=C1C[C@@]23CC[C@H]4[C@@](C)(CCC[C@@]4(C)C(=O)O)[C@@H]2CC[C@]1(O[C@@H]1O[C@@H](CO)[C@@H](O)[C@H](O)[C@@H]1O[C@@H]1O[C@@H](CO)[C@@H](O)[C@H](O)[C@@H]1O)C3` [steviolbioside] had a cell viability of 1.02.

As for `CC[C@H](C)C(=O)O[C@H]1CCC=C2C=C[C@H](C)[C@H](CC[C@@H]3C[C@@H](O)CC(=O)O3)[C@H]21` [Mevastatin], the cell viability came out at 1.12.

`O=C(/C=C/c1ccc(O)c(O)c1)OCCc1ccccc1` [Caffeic Acid Phenethyl Ester] had a cell viability of 0.995.

For the compound `C=CC(=O)Nc1cccc(Oc2nc(Nc3ccc(N4CCN(C)CC4)cc3OC)ncc2Cl)c1`, the cell viability is 1.09.

Take `O=c1cc(-c2ccc(O[C@@H]3O[C@H](CO)[C@@H](O)[C@H](O)[C@H]3O)cc2)oc2cc(O)c([C@@H]3O[C@H](CO)[C@@H](O)[C@H](O)[C@H]3O[C@@H]3OC[C@H](O)[C@H](O)[C@H]3O)c(O)c12` [Vaccarin]: the cell viability amounted to 0.919.

Compound `NCC(O)CC(=O)O` (stereo unspecified) [4-Amino-3-hydroxybutyric Acid] came in with a cell viability of 1.13.

As to `CC(=O)OCC(CCn1cnc2cnc(N)nc21)COC(C)=O` [Famciclovir], the cell viability was 0.957.

With `NNc1nncc2ccccc12` [Hydralazine hydrochloride], the cell viability was 0.782.

In turn, `NC(=O)c1ccccc1Nc1ccnc(Nc2cccc(O)c2)n1` displayed a cell viability of 0.931.

Compound `C[C@H](CCC(=O)O)[C@H]1CC[C@H]2[C@@H]3[C@H](O)C[C@@H]4C[C@H](O)CC[C@]4(C)[C@H]3CC[C@]12C` [Chenodeoxycholic acid] yielded a cell viability of 1.07.

`CN1CCN(c2c(F)cc3c(=O)c(C(=O)O)cn(CCF)c3c2F)CC1` [Fleroxacin]: the cell viability was determined as 0.9.

`O=C1C[C@@H](c2ccc(O)cc2)Oc2cc(O)cc(O)c21` [Naringenin] yielded a cell viability of 0.983.

In turn, `c1ccc([C@H]2CN3CCSC3=N2)cc1` [Levamisole hydrochloride] showed a cell viability of 0.884.

`COC(=O)C1=CO[C@@H](O[C@@H]2O[C@H](CO)[C@@H](O)[C@H](O)[C@H]2O)[C@H]2[C@@H]1[C@H](O)C[C@]2(C)O` [Shanzhiside methyl ester]: the cell viability was determined as 0.951.

Turning to `O=S(=O)(O)c1cc(O)ccc1O` [Ethamsylate], the cell viability is 1.2.

The compound `Cc1ccc(C(C)C)cc1O` [Carvacrol] came in with a cell viability of 1.03.

Compound `CCOC(=O)[C@H](CCc1ccccc1)N[C@H]1CS[C@H](c2cccs2)CN(CC(=O)O)C1=O` [Temocapril HCl] displayed a cell viability of 1.05.

In the case of `O=C1OCCN1/N=C/c1ccc([N+](=O)[O-])o1` [Furazolidone], the cell viability is 1.1.

With `COc1ccc(C2CNC(=O)C2)cc1OC1CCCC1` (stereo unspecified) [Rolipram], the cell viability worked out at 1.

Consider `OC[C@H]1O[C@@H](Oc2cc(O)cc(/C=C/c3ccc(O)cc3)c2)[C@H](O)[C@@H](O)[C@@H]1O` [Polydatin], for which the cell viability stood at 1.01.

For the compound `O=c1c(-c2ccc(O)cc2)coc2cc(O[C@@H]3O[C@H](CO)[C@@H](O)[C@H](O)[C@H]3O)ccc12` [Daidzin], the cell viability is 0.973.

Consider `CC(=O)Nc1nc(C)c(-c2ccc(Cl)c(S(=O)(=O)NCCO)c2)s1`, for which the cell viability came out at 0.889.

Take `CCn1cc(-c2cccc(C(F)(F)F)c2)c2sc(C(=N)NC3CCS(=O)(=O)CC3)cc2c1=O`: the cell viability is 1.06.

Compound `COc1ccc2[nH]c(-c3cccc(F)c3)cc(=O)c2c1OP(=O)(O)O` had a cell viability of 0.523.

`C[C@H]1C[C@@H]2[C@H]([C@@H](O)C[C@@]3(C)[C@H]2CC[C@]3(O)C(=O)CO)[C@@]2(C)C=CC(=O)C=C12` [Methylprednisolone]: the cell viability came to 0.704.

In turn, `COc1cc([C@@H]2c3cc4c(cc3[C@@H](O[C@@H]3O[C@@H]5CO[C@@H](C)O[C@H]5[C@H](O)[C@H]3O)[C@H]3COC(=O)[C@H]23)OCO4)cc(OC)c1O` [Etoposide] yielded a cell viability of 0.97.

With `C[C@@]12C[C@H](c3ccoc3)O[C@@]13C[C@H](OC3=O)[C@H]1[C@H]2C[C@@H]2C[C@H]1C(=O)O2` [Diosbulbin B], the cell viability was found to be 0.979.

`COc1cc(/C=C(\C#N)C(=O)Nc2nnc(C(F)(F)F)s2)ccc1OCc1ccc(C(F)(F)F)cc1C(F)(F)F`: the cell viability was 1.

`CNS(=O)(=O)C[C@H]1CC[C@H](N(C)c2[nH]cnc3nccc2-3)CC1` [Oclacitinib] had a cell viability of 0.937.

Take `CN(C)C(=S)NN=C(c1ccccn1)c1ccccn1`: the cell viability was 0.45.

Regarding `COc1ccccc1OCC(O)CN1CCN(CC(=O)Nc2c(C)cccc2C)CC1` (stereo unspecified) [Ranolazine], the cell viability amounted to 1.1.

For `O=C1c2ccc(Nc3ccc(F)cc3F)cc2CCc2ccc(OC[C@H](O)CO)cc21` [Skepinone-L], the cell viability came out at 1.16.

The compound `NC(=O)C(c1ccccc1)(c1ccccc1)[C@@H]1CCN(CCc2ccc3c(c2)CCO3)C1` [Darifenacin HBr] displayed a cell viability of 0.993.

Consider `CCCNCC(O)COc1ccccc1C(=O)CCc1ccccc1` (stereo unspecified) [Propafenone], for which the cell viability came to 0.933.

Compound `CCn1c(=O)c(-c2cc[nH]n2)cc2c(C)nc(N)nc21` [Voxtalisib] gave a cell viability of 0.86.

In turn, `COc1nccc(-c2c(-c3ccc(F)cc3)ncn2C2CCNCC2)n1` registered a cell viability of 1.04.

`COc1cc2c(cc1-c1c(C)noc1C)ncc1[nH]c(=O)n([C@H](C)c3ccccn3)c12` displayed a cell viability of 0.896.

`CN(C)c1nc(N(C)C)nc(N(C)C)n1` [Altretamine] had a cell viability of 1.1.

`COc1c2c(cc3oc(CO[C@@H]4O[C@H](CO)[C@@H](O)[C@H](O)[C@H]4O)cc(=O)c13)O[C@H](C(C)(C)O)C2` [Cimifugin beta-D-glucopyranoside] had a cell viability of 0.952.

Turning to `CC(C)(C)c1nc2c3cc[nH]c(=O)c3c3cc(F)ccc3c2[nH]1` [Pyridone 6], the cell viability was found to be 0.907.
